# From the antibiotic and cytotoxicity screens of Wong et al. (2023)
# The list shows a part of the results.
# Assays:
# HSkMC = human skeletal muscle cells; assay: cytotoxicity call (relative viability < 0.9); conditions: 10 µM
# HepG2 = assay: cytotoxicity call (relative viability < 0.9); conditions: 10 µM
# S. aureus RN4220 = assay: growth inhibition call (relative growth <= 0.2); conditions: 50 µM
Structure (SMILES),cytotoxicity call (HSkMC),cytotoxicity call (HepG2),growth inhibition call (S. aureus RN4220)
COc1ccc2c3c([nH]c2c1)[C@@H](CO)N(C[C@]13CCN(CC1)C(=O)Nc1ccc2c(c1)OCO2)C(=O)Nc1ccc(cc1)F,inactive,inactive,inactive
COc1ccc(-c2cnc3c(c2)C(=O)N([C@H](C)CO)C[C@@H](C)[C@H](CN(C)S(=O)(=O)c2ccc(OC)cc2)O3)cc1,inactive,inactive,inactive
C[C@H](CO)N1C[C@H](C)[C@@H](CN(C)C(=O)Nc2ccc(C(F)(F)F)cc2)Oc2ccc(NC(=O)Nc3ccc(C(F)(F)F)cc3)cc2C1=O,inactive,active,inactive
C[C@@H]1CN([C@@H](C)CO)C(=O)c2cc(NS(=O)(=O)c3ccc(F)cc3)ccc2O[C@@H](C)CCCCO[C@@H]1CN(C)C(=O)CCC(F)(F)F,inactive,inactive,inactive
C=c1nnsc1=C1NC(c2cc(C)on2)=NO1,inactive,inactive,inactive
Cc1noc(C)c1S(=O)(=O)N(C)C[C@@H]1Oc2ccc(NS(=O)(=O)c3cccs3)cc2C(=O)N([C@@H](C)CO)C[C@@H]1C,inactive,inactive,inactive
COC(=O)CCCCCCC(=O)Nc1ccc([C@H]2O[C@@H](CSc3nc(-c4ccccc4)c(-c4ccccc4)o3)C[C@H](c3ccc([N+](=O)[O-])cc3)O2)cc1,inactive,inactive,inactive
C[C@@H]1CN([C@H](C)CO)C(=O)c2cc(NS(=O)(=O)c3cn(C)cn3)ccc2O[C@@H]1CN(C)CC1CCCCC1,inactive,inactive,inactive
C[C@@H]1CN([C@H](C)CO)C(=O)Cc2cc(NC(=O)CCCN(C)C)ccc2O[C@@H]1CN(C)Cc1ccc(Oc2ccccc2)cc1,inactive,active,inactive
CCCNC(=O)Nc1ccc2c(c1)C(=O)N(C)C[C@@H](OC)[C@@H](C)CN(C(=O)C1CCOCC1)[C@@H](C)CO2,inactive,inactive,inactive
Cc1ccc(S(=O)(=O)Nc2ccc3c(c2)C(=O)N([C@H](C)CO)C[C@@H](C)[C@@H](CN(C)S(=O)(=O)c2ccc(F)cc2)O3)cc1,inactive,inactive,inactive
Nc1nc(-c2ccc(F)cc2)cs1,inactive,inactive,inactive
C[C@H](CO)N1C[C@H](C)[C@@H](CN(C)C(=O)Nc2ccc(F)cc2)Oc2ncc(Br)cc2C1=O,inactive,inactive,inactive
NCCNC(=O)Cc1ccc(O)cc1,inactive,inactive,inactive
COc1ccc([C@H]([C@H](Cc2ccccc2)OC(C)=O)N(C[C@H](/C=C/c2ccccc2)CC(=O)N(C)C)[C@@H](Cc2ccccc2)C(OC)OC)cc1,inactive,active,inactive
O=C(C[C@@H]1CC[C@@H]2[C@H](COC[C@@H](O)CN2S(=O)(=O)c2ccc(Cl)cc2)O1)NCC1CCCCC1,inactive,inactive,inactive
Cc1ccc2c(c1)c1nc3ccccc3nc1n2Cc1ccccc1,inactive,inactive,inactive
O=C(NCCCN1CCOCC1)[C@H]1[C@H](CO)[C@H]2Cn3c(ccc(C4=CCCCC4)c3=O)[C@@H]1N2,inactive,inactive,inactive
COc1cc(/C=C/C(=O)CC2=N/C(=N/Cc3ccc4c(c3)OCO4)S[C@H](c3ccc(O)c(OC)c3)C2)ccc1O,inactive,inactive,inactive
C[C@@H]1CCCCO[C@@H](CN(C)S(=O)(=O)c2cn(C)cn2)[C@H](C)CN([C@@H](C)CO)C(=O)c2cc(NC(=O)CCCN(C)C)ccc2O1,inactive,inactive,inactive
C[C@@H]1CN([C@@H](C)CO)C(=O)c2cc(NC(=O)Nc3ccc4c(c3)OCO4)ccc2O[C@@H](C)CCCCO[C@@H]1CN(C)CC1CCCCC1,inactive,inactive,inactive
O=C(CS)NCCCCCCNC(=O)[C@@H]1C[C@@H]2C(=O)N[C@@H](Cc3ccccc3)C(=O)N2[C@@H]1c1cccc(OCCO)c1,inactive,inactive,inactive
Cc1n[nH]c(NN2CCOCC2)nc1=O,inactive,inactive,inactive
COc1ccc(S(=O)(=O)N(C)C[C@H]2OCCCC[C@H](C)Oc3ccc(NC(=O)CCC(F)(F)F)cc3C(=O)N([C@H](C)CO)C[C@H]2C)cc1,inactive,inactive,inactive
Cc1noc(C)c1NC(=O)N(C)C[C@@H]1OCCCC[C@@H](C)Oc2ccc(NC(=O)c3ccccc3)cc2C(=O)N([C@H](C)CO)C[C@@H]1C,inactive,inactive,inactive
COc1ccc(NC(=O)Nc2ccc3c(c2)C(=O)N([C@@H](C)CO)C[C@@H](C)[C@H](CN(C)CC2CCCCC2)O3)cc1,inactive,inactive,inactive
C[C@@H]1CCCCO[C@@H](CN(C)C(=O)C2CCCCC2)[C@@H](C)CN([C@@H](C)CO)C(=O)c2cc(NS(=O)(=O)c3cccs3)ccc2O1,inactive,inactive,inactive
